# Laboratory results reported in PubChem BioAssay (Tox21).
# Several values for one entry are separate records, joined by “and”; a condition that tells them apart may be missing. Equal entries are not always repeated. Inconclusive results, whose numbers are uncertain, are shown with a selection of clear calls. For some assays here: Potencies of inconclusive entries are doubtful fits and often do not repeat. Activity calls are given as the source filed them. Unless noted, calls come from the whole dose curve; as a rule, active = well fitted curve in the direction sought with a large enough effect in the repeat runs; inconclusive = weak or mixed curves; inactive = no such curve, though single readings can be large; an effect the other way counts as inactive or inconclusive.
# Columns and labels:
# [1] = qHTS assay for small molecule agonists of the p53 signaling pathway (AID 651631; calls by dose curve; note: nearly all actives have a fitted effect of over 15% in size; for activation: % is set by controls: 0 for no effect and ±100 for the full control effect); details: HCT-116 p53RE-bla reporter, beta-lactamase FRET ratio, 16 h; activation: at 73.3 µM (top of the series) unless noted
# Summary of the method: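 Testing took place in human colorectal HCT-116 cells with stable p53RE-driven beta-lactamase. After 16 h of compound exposure at 37 °C, a FRET substrate was added and fluorescence recorded 2 h later.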
# [2] = qHTS assay for small molecule disruptors of the mitochondrial membrane potential (AID 720635); details: HepG2 mitochondrial membrane potential, Mito-MPS dye ratio; for ratio activity, negative = MMP loss: % is set by controls: 0 for no effect and ±100 for the full control effect
# Summary of the method: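 Mitochondrial membrane potential tracked with Mito-MPS dye, red aggregates (ex 540/em 590 nm) against green monomers (ex 490/em 535 nm). Compound treatment 1 hr at 37C, dye 30 min in HepG2.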
# [3] = biological target: Glucocorticoid receptor (Homo sapiens) (UniProt P04150); assay: qHTS assay to identify small molecule agonists of the glucocorticoid receptor (GR) signaling pathway (AID 720691; active = well fitted activation curve with a large enough effect in the signal ratio in the repeat runs, not every such curve was filed as active; inconclusive = weak or mixed curves, or effect the other way; inactive = no such curve, though single readings can be large or run the other way; the % refers to the signal ratio; for activation: % is set by controls: 0 for no effect and ±100 for the full control effect); details: GR-bla HeLa, beta-lactamase reporter ratio, 18 h; activation: at 62.4 µM (top of the series) unless noted
# Summary of the method: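 Agonist mode in a HeLa line carrying a GRE-controlled beta-lactamase reporter. Compounds act for 18 h at 37 C before a 2 h room-temperature FRET substrate step and fluorescence reading.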
# [4] = biological target: Glucocorticoid receptor (Homo sapiens) (UniProt P04150); assay: qHTS assay to identify small molecule antagonists of the glucocorticoid receptor (GR) signaling pathway (AID 720692; active = well fitted inhibition curve with a large enough effect in the signal ratio in the repeat runs, not every such curve was filed as active; inconclusive = weak or mixed curves, or effect the other way; inactive = no such curve, though single readings can be large or run the other way; the % refers to the signal ratio; for activity change, negative = inhibition: % is set by controls: 0 for no effect and ±100 for the full control effect); details: GR-bla HeLa, beta-lactamase FRET ratio, dexamethasone-stimulated, 18 h; activity change, negative = inhibition: at 58.5 µM (top of the series) unless noted
# Summary of the method: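 Cells plated, rested 4 h at 37 C/5% CO2; compounds in DMSO pin-transferred; dexamethasone added to 5 nM final; 18 h at 37 C; B/G FRET substrate added, 2 h room temperature; fluorescence measured.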
# [5] = qHTS assay to identify small molecule antagonists of the androgen receptor (AR) signaling pathway - cell viability counter screen (AID 743033; note: nearly all actives have a fitted effect of over 45% in size); details: AR-bla HEK293 viability, CellTiter-Glo luminescence, 16 h; activity change, negative = cytotoxicity: at 58.5 µM (top of the series)
# [6] = qHTS assay for small molecule disruptors of the mitochondrial membrane potential - cell viability (AID 720634; calls by dose curve; note: nearly all actives have a fitted effect of over 20% in size)
# Summary of the method: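 After overnight attachment at 37 C, HepG2 cells received compound or DMSO vehicle for 1 hr. Viability is then taken from ATP-driven luminescence following a 30 min room-temperature CellTiter-Glo step.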
# [7] = qHTS assay for identifying genotoxic compounds that show differential cytotoxicity against isogenic chicken DT40 cell lines with known DNA damage response pathways - Rev3 mutant cell line (AID 743014); details: chicken DT40 Rev3-/- viability, CellTiter-Glo, 40 h; activity, negative = cytotoxicity: at 68.4 µM (top of the series); note: nearly all actives have a fitted effect of over 55% in size
# [8] = qHTS assay to test for compound auto fluorescence at 460 nm (blue) in HEK293 cells (AID 720678)
# Summary of the method: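 Intrinsic compound fluorescence is recorded in live HEK293 cultures after overnight incubation at 37C, 5% CO2, using excitation 405 nm and emission 460 nm. Values are referenced to triamterene.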
# [9] = qHTS assay to test for compound auto fluorescence at 460 nm (blue) in HEK293 cell free culture (AID 720681)
# Summary of the method: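 Blue fluorescence (Ex 405/Em 460 nm, triamterene-equivalent) was read immediately after pin transfer of compound or DMSO into medium (DMEM, 10% FBS) without cells.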
# [10] = qHTS assay to test for compound auto fluorescence at 460 nm (blue) in HepG2 cells (AID 720687)
# Summary of the method: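 Blue-channel autofluorescence (Ex/Em 405/460 nm, triamterene-equivalent) was measured after 1 hr compound exposure at 37 C, 5% CO2. Cells were HepG2, plated overnight at 37 C in MEM plus 10% FBS.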
# [11] = ratio activity, negative = MMP loss: at 83.2 µM (top of the series) unless noted
# Potency is the fitted concentration of half-maximal effect; tags give direction and shape of the fitted curve or compound fluorescence and quenching.
# Sequence of UniProt P04150 (P04150 whole entry, looked up): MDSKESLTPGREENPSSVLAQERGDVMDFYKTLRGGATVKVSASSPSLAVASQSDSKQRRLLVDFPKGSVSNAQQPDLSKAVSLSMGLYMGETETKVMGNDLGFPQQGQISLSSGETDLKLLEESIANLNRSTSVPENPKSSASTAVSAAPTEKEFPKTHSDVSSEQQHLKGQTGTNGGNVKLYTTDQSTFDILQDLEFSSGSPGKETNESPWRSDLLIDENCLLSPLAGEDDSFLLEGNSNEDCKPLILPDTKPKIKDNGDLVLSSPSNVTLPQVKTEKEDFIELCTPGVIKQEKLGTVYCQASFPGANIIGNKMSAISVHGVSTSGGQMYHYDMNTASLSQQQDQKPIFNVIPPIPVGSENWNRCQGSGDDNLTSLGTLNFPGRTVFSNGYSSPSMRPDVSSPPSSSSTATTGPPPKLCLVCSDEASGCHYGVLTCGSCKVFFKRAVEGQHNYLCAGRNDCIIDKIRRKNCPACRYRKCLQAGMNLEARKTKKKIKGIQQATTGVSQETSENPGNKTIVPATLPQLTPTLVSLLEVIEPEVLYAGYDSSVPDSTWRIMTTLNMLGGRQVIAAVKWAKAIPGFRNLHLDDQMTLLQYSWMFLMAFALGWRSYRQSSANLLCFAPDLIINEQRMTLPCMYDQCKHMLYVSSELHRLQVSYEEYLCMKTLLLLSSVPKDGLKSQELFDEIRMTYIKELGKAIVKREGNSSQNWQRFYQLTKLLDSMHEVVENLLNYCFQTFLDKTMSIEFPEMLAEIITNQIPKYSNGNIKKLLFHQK
smiles,measurement,setting,value
COc1ccc(C=O)cc1O,Potency,[1],"inconclusive: 21.8 µM [rising, partial curve]"
same,Potency,[2]; [11],"inconclusive: 2.45 µM [activator, full curve, poor fit]"
CN1CSC(=S)N(C)C1,Potency,[1],inactive
same,"ratio activity, negative = MMP loss",[2]; at 83.2 µM (top of the series),inactive: -14.3%
same,"ratio activity, negative = MMP loss",[2]; [11],inconclusive: 41.5%
same,Potency,[3],active: 1.94 µM
same,activation,[3],inconclusive: 6.35%
same,Potency,[4],inconclusive: 54.7 µM [activator] and inconclusive: 54.8 µM [activator]
same,Potency,[5],active: 5.47 µM and active: 3.46 µM
c1ccc(NNc2ccccc2)cc1,Potency,[1],"inconclusive: 77.7 µM [falling, single point]"
same,Potency,[6],"inconclusive: 61.7 µM [cytotoxic] and inconclusive: 77 µM [cytotoxic, partial curve, poor fit]"
same,Potency,[2]; [11],inconclusive: 61.7 µM [inhibitor] and inactive
same,Potency,[4],inactive
same,Potency,[7],"inconclusive: 69.2 µM [cytotoxic, single point]"
O=C1C(Cl)=C(Cl)C(=O)c2ccccc21,Potency,[8],"inconclusive: 3.98 µM [fluorescent, full curve, poor fit] and inconclusive: 5.01 µM [fluorescent, partial curve, poor fit]"
ClC1=C(Cl)[C@]2(Cl)[C@@H]3[C@@H](Cl)[C@H]4O[C@H]4[C@@H]3C1(Cl)C2(Cl)Cl,Potency,[9],"inconclusive: 56.2 µM [rising, single point]"
c1ccc2c(c1)[nH]c1cnccc12,Potency,[10],"inconclusive: 31.6 µM [fluorescent, partial curve, poor fit]"
